Assay results from PubChem BioAssay AID485273 (Sanford-Burnham Center for Chemical Genomics, 2010).
About 1,500 (0.45%) of roughly 330,000 compounds were called active. The inconclusive results got no clear call from the source; some entries with a clear call stand among them for comparison. Cut-off read from the data, not from the text of the source: active = inhibition above about 45% (passing the limit was not always enough); inconclusive = no clear call, values can overlap the other calls.

Each molecule was assayed against Ubiquitin-conjugating enzyme E2 N (Homo sapiens) (UniProt P61088) (assay: UBC13 polyubiquitin chain formation inhibitors, primary screen, biochemical, TR-FRET, uHTS (AID 485273)). Conditions: at 20 µM, hits give high values.
Chain of UniProt P61088 (P61088 whole entry, looked up): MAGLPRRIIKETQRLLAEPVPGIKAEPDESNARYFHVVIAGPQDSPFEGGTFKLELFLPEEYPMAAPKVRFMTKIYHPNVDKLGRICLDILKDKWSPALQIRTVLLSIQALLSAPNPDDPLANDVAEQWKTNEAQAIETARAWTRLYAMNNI

Compound	inhibition
O=C(c1ccccc1)c1ccc(C(=O)N2CCOCC2)cc1	inactive: 0.2%
Oc1cccc(NC(=S)N=Nc2c(O)[nH]c3ccccc23)c1	inconclusive: 87.7%
O=C(Nc1ccc2nc(-c3ccco3)c(-c3ccco3)nc2c1)NC1CC1	inconclusive: 46.8%
Cc1ccc2c(c1)C(=O)N1[C@H]3c4cc(Cl)ccc4OC[C@@H]3[C@H](c3ccccc3)[C@]1(C)C(=O)N2	inconclusive: 75%
Cc1nnn(-c2nonc2N)c1C(=O)N/N=C/c1cccc2ccccc12	inactive: -1.8%
COc1ccc(C[C@H]2CN3C(=NC[C@H]3Cc3ccccc3)N2CCNC(=O)c2ccc(C)c(Br)c2)cc1	active: 71.9%
COC(=O)[C@]1(C)N[C@H](CN(C)C(=O)Nc2ccc(C)cc2)[C@@H]2C(=O)N(C)C(=O)[C@@H]21	inactive: -17.6%
COc1ccc(NC(=O)Cn2cnc3c(oc4nc5c(cc43)COC(C)(C)C5)c2=O)cc1	inactive: 3.4%
O=C(CSc1nc(-c2ccccc2)nc2ccccc12)Nc1cccc(C(=O)O)c1	inactive: 15.2%
O=C(O)c1cc(O)c2c(c1)[C@H]([C@H]1c3cc(C(=O)O)cc(O)c3C(=O)c3c(O[C@@H]4O[C@H](CO)[C@@H](O)[C@H](O)[C@H]4O)cccc31)c1cccc(OC3O[C@H](CO)[C@@H](O)[C@H](O)[C@H]3O)c1C2=O (stereo partly drawn)	inconclusive: 79.3%
COC(=O)c1cn(C(=O)c2ccc(Cl)cc2)c2ccccc12	inconclusive: 86.1%
COc1cc(C(=S)N2CCC(C)CC2)ccc1O	inactive: -4.8%
COc1cc2sc(-c3ccc(S(C)(=O)=O)cc3)c(-c3ccc4c(c3)OCO4)c2cc1OC	inconclusive: 79.9%
C#CCOCCOCCOCCNc1nc(N2CCN(C(=O)CCCCCCCCCCNC(=O)[C@H](CCCCN)n3cc(C)nn3)CC2)nc(N2CCN(C(=O)CCCCCCCCCCNC(=O)[C@H](CCCCN)n3cc(CCCC(=O)O)nn3)CC2)n1	active: 114%
CCN(CC)CCC(c1ccc2c(c1)OCO2)c1c(O)cc(OC)cc1OC (stereo not drawn)	inactive: 14.2%
COc1cc(C2C(C#N)=C(N)Oc3n[nH]c(-c4cccs4)c32)cc(OC)c1O (stereo not drawn)	active: 83.8%
COc1ccc(C(=O)OCC(=O)NC2CCCCCC2)cc1OC	active: 66%
COc1ccccc1-n1cc(-c2ccccc2)c2c(=S)nc[nH]c21	inconclusive: 81.4%
COC(=O)c1c(-c2ccc(OC)cc2)sc2ccc(-c3ccc4c(c3)OCO4)cc12	inconclusive: 60.8%
CCOCCCNC1=C(Cl)C(=O)c2ccccc2C1=O	inactive: -229%
CCCC(C(=O)NCc1ccco1)N(C(=O)CNS(=O)(=O)c1ccccc1)C1CCCC1 (stereo not drawn)	inconclusive: 76.2%

Compound	inhibition
O=C(CSc1nc2ccsc2c(=O)n1Cc1ccc(C(=O)O)cc1)NCC1CCCO1 (stereo not drawn)	active: 69.1%
O=C(CSc1ncnc2c1cnn2-c1ccc(F)cc1)NCC1CCCO1 (stereo not drawn)	inconclusive: 46.2%
CC(C)C1=NN2C(=N)CC(=O)N=C2S1	inconclusive: 90.5%
CN(C)CCCN(C(=O)c1ccc(C(=O)c2ccccc2)cc1)c1nc2cc3c(cc2s1)OCO3	active: 72.1%
CCOc1ccc(N(C(=O)c2snc(C(N)=O)c2N)C(C(=O)NC2CCCC2)C(C)C)cc1 (stereo not drawn)	active: 69.7%
CCOc1ccc(S(=O)(=O)c2c(C(=O)c3ccc(C)cc3)cnc3cc4c(cc23)OCCO4)cc1	inconclusive: 51.4%
COc1ccc(NC(=O)N(C)C[C@H]2Oc3c(NS(=O)(=O)c4ccc(F)cc4)cccc3C(=O)N([C@H](C)CO)C[C@@H]2C)cc1	inconclusive: 63.9%
CC1=CC(=O)C=C(C)C1=NOc1ccccc1[N+](=O)[O-]	inactive: -29.3%
CC1CCCCC1NC(=O)CCCCCn1c(=S)[nH]c2ccsc2c1=O (stereo not drawn)	inconclusive: 79.1%
CCOC(=O)c1ccc(NC(=O)c2nc[nH]c2C(=O)NC2CCN(C(=O)OC(C)(C)C)CC2)cc1	active: 92.2%
COc1ccc(-c2cc(=Nc3ccc(C(=O)O)cc3)c3cc(C)ccc3o2)cc1	inactive: 4.4%
Clc1nc(-c2ccccc2)cc(-c2ccc(Br)cc2)n1	inconclusive: 80%
CCCN1CCN(CCCNC(=O)C(CC)n2nc(C)n3c(cc4occc43)c2=O)CC1 (stereo not drawn)	inactive: 2.9%
CCOc1ccc(NC(=O)c2sc3nc(N4CCOCC4)c4c(c3c2N)CCCC4)cc1	inconclusive: 78.9%
CCCc1nnc(SCC(=O)O)n1/N=C/c1ccc2c(c1)OCO2	inconclusive: 77.4%
O=c1[nH]c(CN2CCN(c3ccccn3)CC2)nc2c(Br)cc(Br)cc12	inconclusive: 95.1%
COC(=O)c1cc(Cl)cc(Cl)c1OS(=O)(=O)N(C)C	inconclusive: 84.2%
COc1ccc2[nH]c(=O)c(NC(N)=S)nc2c1	inconclusive: 52.2%
CCOC(=O)c1cc(C)nc(Sc2ccc(C)cc2)c1C#N	inconclusive: 49.2%
CC1(C)CC(CCN)(Cc2ccccc2Cl)CCO1 (stereo not drawn)	inconclusive: 84.5%
CCOc1ccc(-n2cc(-c3ccccc3)c3c(=S)nc[nH]c32)cc1	inconclusive: 67.7%

Compound	inhibition
CC1CCCCN1S(=O)(=O)c1ccc(C(=O)N(CCCN(C)C)c2nc3ccc(Br)cc3s2)cc1 (stereo not drawn)	active: 51.7%
CCCS(=O)(=O)N1CCN(C2Cc3ccccc3C2)CC1	inactive: -0.9%
CC1CCc2cc(F)cc3c(O)c(C(=O)NCc4ccco4)c(=O)n1c23 (stereo not drawn)	inconclusive: 83.3%
CC(=O)c1c(C)[nH]c(=S)c(C#N)c1-c1ccc(F)cc1	inconclusive: 59.4%
COCCCNc1nc2c(-c3ccc(Cl)cc3)nnn2c2ccccc12	inconclusive: 77.2%
CCOC(=O)c1c(-c2ccccc2)oc2ccc(OCC(=O)NNC(=O)CCCC(=O)O)cc12	inactive: 9.9%
NC(=S)N=Nc1c(O)[nH]c2ccc(F)cc12	active: 50.3%
COc1ccc(-n2nc(C(=O)NCc3ccco3)c3ccccc3c2=O)cc1	inconclusive: 59.2%
Cc1cc(NC(=O)Cn2c(=O)n(CCCCC(=O)NC3CCN(Cc4ccccc4)CC3)c(=O)c3ccccc32)n[nH]1	active: 51.7%
O=C(NN1C(=O)c2ccc3c4c(ccc(c24)C1=O)CC3)c1ccc(Br)cc1	active: 57.3%
Cc1noc(C)c1C(=O)Nc1ccccc1C(=O)NCCc1ccccc1	inactive: 8.7%
COc1ccccc1N(C)S(=O)(=O)c1ccc(Cl)c(C(=O)NNC(=O)c2ccccc2O)c1	inactive: -9.3%
Cc1cccc(-n2ncc3c(N4CCCc5ccccc54)ncnc32)c1	inconclusive: 59.2%
CC(=O)c1cccc(NCC(=O)Nc2cc(S(=O)(=O)N3CCCCC3)ccc2C)c1	inactive: 9.8%
CCCCOc1ccc(Cc2c(COCC)[nH]c(=S)[nH]c2=O)cc1	inconclusive: 49.1%
CCOc1ccc(NC(=O)CCCOc2cc(=O)n(C)c3ccccc23)cc1	active: 73.8%
O=c1c2ccccc2[nH]c(=S)n1Cc1ccccc1Cl	inconclusive: 67.1%
CCn1c(=O)c(C(=O)NCc2ccccc2)c(O)c2ccccc21	inconclusive: 49%
Cc1csc2c(N3CCN(C(=O)c4ccc(C(C)(C)C)cc4)CC3)ncnc12	inactive: 3.8%
O=C(CCCCCn1c(=S)[nH]c2ccsc2c1=O)NC1CCCCC1	inconclusive: 78.2%
O=C(CN1CCN(S(=O)(=O)N2CCCCCC2)CC1)Nc1ccc(Br)cc1	inconclusive: 83.7%

Compound	inhibition
COc1cc2c3c(c1)c(N=NC(N)=S)c(O)n3C(C)(C)C=C2C	active: 80.3%
CCOc1ccccc1NC(=O)c1sc2nc(C)nc(N3CCOCC3)c2c1C	inconclusive: 62.3%
CCn1c(=O)c(C(=O)NCc2ccc(OC)cc2)c(O)c2ccccc21	inconclusive: 53.1%
C#CCn1c(=NC(=O)c2ccc(Br)s2)sc2cccc(OC)c21	inconclusive: 46.4%
COc1ccc(C(=O)Cc2ccc3c(c2)OCO3)c(O)c1	inconclusive: 53%
CC(C)c1cc(C(F)(F)F)n2nc(C(=O)Nc3ccc(-n4cnnn4)cc3)cc2n1	inconclusive: 56.7%
CCOC(=O)Nc1nc(-c2ccccc2)c(C(=O)c2ccccc2)s1	inactive: -0.6%
CC(=O)c1ccc2c(c1)c(C#N)c1ccccc1[n+]2[O-]	inactive: -89.8%
CC(C)CC(C(=O)NC(C)(C)C)N(Cc1cccs1)C(=O)c1snc(C(N)=O)c1N (stereo not drawn)	active: 65%
O=C(Nc1ccccc1Cl)N1CCSc2ccccc21	inconclusive: 99.1%
CN(C)c1ccc(NC(=O)CN2CCC(NC(=O)C3CCCCC3)CC2)cc1	active: 64.3%
O=C(OCc1ccc(Cl)c(Cl)c1)c1ccc[nH]1	inactive: 3.1%
COc1cccc(NC(=O)Cn2cc3c(n2)CCCCC3)c1	inactive: 3.1%
O=C(Nc1nnc(-c2ccccn2)o1)c1cccc(Cl)c1	inactive: -27.3%
CCn1c(SCC(=O)Nc2oc(C)c3c(C)n[nH]c(=O)c23)nc2sc(C)c(C)c2c1=O	active: 63.8%
O=C(NC(=S)NNC(=O)c1ccc(Cl)cc1Cl)c1cccnc1	inconclusive: 84.1%
S=C(c1ccc(Br)cc1)N1CCN(Cc2ccccc2)CC1	inactive: -10.8%
NC(=O)[C@@H]1[C@@H]2C(=O)N(c3ccc(F)cc3)C(=O)[C@@H]2[C@H]2C=Cc3ccccc3N21	inconclusive: 85.4%
CSc1sc(-c2nnc(SCC(=O)Nc3ccc(Cl)cc3)n2C)c2c1C=CCC2	inconclusive: 69.6%
CSc1nc2sc3c(c2c(=S)[nH]1)CC(C)(C)OC3	inconclusive: 68%
